From PubChem BioAssay AID651820 (National Center for Advancing Translational Sciences (NCATS), 2012)
Hit rate of the full screen: of about 340,000 compounds, about 12,000 (3.5%) were called active. The shares of active, inactive and inconclusive entries below differ from those in the screen. The call rests on the fitted dose curve; in most records, active means well fitted inhibition curve with a large enough effect; inconclusive means small, poorly fitted or top-dose-only effect, or another doubt; inactive means no such curve, though single readings can be large or run the other way. No potency is given beside an inconclusive call; the fits are too rough.
Potency means the concentration at half of the fitted maximal effect; tags describe the fitted curve by direction and shape.

Assay: qHTS Assay for Inhibitors of Hepatitis C Virus (HCV)
Conditions: Huh7.5.1 HCVcc-Cre (HCVcc is cell-culture hepatitis C virus) infection, luciferase reporter, 44 h; series mostly up to 41.8 µM
Summary of the method: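 Whole-lifecycle infectious HCVcc-Cre system; cells 1,000/well, compound then virus (~0.5 moi) added 4 h after plating, 44 h culture. Luciferase read 15 sec following 15 min substrate incubation, room temp.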
For `COc1ccc(C2=CC(=O)OC(C)(c3ccccc3)O2)cc1` (centres undefined), the Potency was “inactive”. With `CCn1c(C)cc(C(=O)CSc2nnnn2C2CCCC2)c1C` the Potency was inconclusive [inhibitor, single point]. For `Cc1ccc(C(=O)Nc2ncc([N+](=O)[O-])s2)cc1`, the Potency was inconclusive [inhibitor, partial curve]. With `COc1ccc(/C=N/NC(=O)c2cc(-c3ccc4c(c3)OCO4)n[nH]2)cc1OC` the Potency was inconclusive [inhibitor, partial curve]. In the case of `O=C(N/C(=C/c1ccc([N+](=O)[O-])cc1)C(=O)N1CCCC1)c1ccccc1`, the Potency was inconclusive [inhibitor, partial curve, poor fit]. For `CNC(=O)c1ccc(NC(=O)Cc2ccc(S(=O)(=O)N3CCOCC3)s2)cc1`, the Potency was “inactive”. For `Cc1cc(C)c(NC(=O)CN(C)CC(=O)Nc2cccc(S(=O)(=O)N(C)c3ccccc3)c2)c(C)c1`, the Potency was active: 10 µM. With `CCN(C(=O)COC(=O)CCC(=O)c1cccs1)C1CCCCC1` the Potency was “inactive”. With `CCOc1ccc(CN(C(=O)c2oc3cc(C)ccc3c2C)C2CCS(=O)(=O)C2)cc1` (centres undefined) the Potency was inconclusive [inhibitor, single point]. For `Cc1cc(C)cc(NC(=O)c2ccc(CSc3nnc(C)s3)cc2)c1`, the Potency was “inactive”. For `CC(=O)CC(=O)NC(=NC1CCCCC1)Nc1nc(C)cc(C)n1`, the Potency was active: 11.2 µM. With `CC(=O)Nc1ccc(S(=O)(=O)Nc2ccc3c(c2)CCC3)cc1` the Potency was inconclusive [inhibitor, single point]. With `CCCN1C(=O)C(Cc2nc3ccccc3c(=O)n2-c2ccccc2)c2ccccc21` (centres undefined) the Potency was inconclusive [inhibitor, single point]. In the case of `CCN1CCN(c2ncnc3sc(C)c(-c4ccccc4)c23)CC1`, the Potency was “inactive”. With `O=C(CCc1nc(-c2ccccc2)no1)N1CCCC1` the Potency was “inactive”. In the case of `COc1cccc(OCC(Cn2c(C)nc3ccccc32)OC(C)=O)c1` (centres undefined), the Potency was inconclusive [inhibitor, full curve]. For `CCC(C)NC(=O)CCCCCn1c(=O)[nH]c2cc(OC)c(OC)cc2c1=O` (centres undefined), the Potency was “inactive”. With `COC(=O)/C(=C(O)\C=C\c1ccccc1[N+](=O)[O-])c1nc2ccccc2[nH]1` the Potency was inconclusive [inhibitor, partial curve]. In the case of `CC(C)=CCCC(C)CN1CCC(N2CCC(C(=O)N3CCCC3)CC2)CC1` (centres undefined), the Potency was active: 2.51 µM. With `COc1ccccc1N1CCN(C(=O)CCN2C(=O)c3cccc4cccc(c34)C2=O)CC1` the Potency was inconclusive [inhibitor, single point]. For `CCNC(=O)NC(=O)C(C)OC(=O)c1cccnc1SC` (centres undefined), the Potency was “inactive”. In the case of `O=C(O)c1ccccc1NC(c1ccccc1)c1ccc2cccnc2c1O` (centres undefined), the Potency was inconclusive [inhibitor, single point]. With `CC(C)OCCCNC(=O)c1ccc(Br)cc1` the Potency was “inactive”. In the case of `COc1ccc(NC(=O)c2ccc3ccccc3c2)cc1`, the Potency was “inactive”. With `CN(C)CCNC(=O)c1c(NC(=O)c2ccccc2)sc2c1CCCC2` the Potency was inconclusive [inhibitor, partial curve]. In the case of `COc1ccccc1Nc1nc(-c2sc(NC(=O)c3ccco3)nc2C)cs1`, the Potency was inconclusive [inhibitor, full curve, poor fit]. In the case of `CC(C)NS(=O)(=O)c1ccc(CCC(=O)NCc2ccccn2)cc1`, the Potency was “inactive”. In the case of `O=C(NCc1ccc(F)cc1)Nc1cccc(Cl)c1`, the Potency was “inactive”. In the case of `COc1cc(/C=C(\C#N)c2nc3ccc(C)cc3[nH]2)c([N+](=O)[O-])cc1OC`, the Potency was inconclusive [inhibitor, partial curve]. In the case of `Cc1cc(C)n(-c2nc(NCCCO)c3c4c(sc3n2)CCCC4)n1`, the Potency was active: 7.08 µM. In the case of `COc1cc(OC)cc(C(=O)NNc2nc3cc4c(cc3s2)OCO4)c1`, the Potency was inconclusive [inhibitor, single point]. For `O=C(CC(=O)NN=C1CCCC1)NCCc1ccccc1`, the Potency was “inactive”. For `COc1cccc(OC)c1C(=O)NC(=S)Nc1cc(-c2nc3ccccc3[nH]2)ccc1Cl`, the Potency was inconclusive [inhibitor, full curve, poor fit]. In the case of `CCCCNC(=S)NC(=O)c1ccc([N+](=O)[O-])cc1`, the Potency was “inactive”. In the case of `CCN(CC)CC#CCC(O)(c1ccccc1)c1ccccc1`, the Potency was inconclusive [inhibitor, single point]. In the case of `Clc1ccc(CNCCCSc2ncccn2)cc1Cl`, the Potency was “inactive”. In the case of `Cc1ccc(-n2c(SCC(=O)Nc3ccc4c5c(cccc35)CC4)nc(O)c(C)c2=O)cc1`, the Potency was “inactive”. For `Cc1ccc(Cl)c(OCC(=O)NC2CCN(Cc3ccccc3)CC2)c1`, the Potency was inconclusive [inhibitor, single point]. With `NNC(=O)c1cc(-c2ccc(O)cc2)nc2ccc(Br)cc12` the Potency was “inactive”. With `C/C(=N/NC(=S)Nc1cccc(C)c1)c1cccc([N+](=O)[O-])c1` the Potency was “inactive”. With `CCCC(=O)N1CCN(c2nc3c(OC)ccc(Cl)c3s2)CC1` the Potency was inconclusive [inhibitor, partial curve]. With `O=C(OCC(=O)N1CCN(C(=O)c2ccco2)CC1)c1ccccc1O` the Potency was “inactive”. With `CC(C)CCn1c(N)c(C(=O)OCC2CCCO2)c2nc3ccccc3nc21` (centres undefined) the Potency was active: 12.6 µM. For `COc1ccc(S(=O)(=O)n2nc(-n3c(C)ccc3C)c3c(F)cccc32)cc1OC`, the Potency was inconclusive [inhibitor, single point]. For `COc1ccc(Cl)cc1NC(=O)CN(C)C(=O)c1sccc1-c1ccccc1`, the Potency was inconclusive [inhibitor, single point]. In the case of `COc1ccc(Nc2c(-c3ccco3)nc3ccc(C)cn23)cc1`, the Potency was “inactive”. For `Cc1cc(Nc2ccccc2)nc(N2CCN(C(=O)c3ccc4c(c3)OCO4)CC2)n1`, the Potency was inconclusive [inhibitor, partial curve]. For `CCOC(=O)c1ccc2nc(NC(=O)C(C)C)sc2c1`, the Potency was inconclusive [inhibitor, single point]. With `CC(=O)NCCC(=O)Nc1nc(-c2ccc3c(c2)OCCO3)cs1` the Potency was “inactive”. In the case of `S=C(Nc1ccc(Cl)c(Cl)c1)NC1CCCCC1`, the Potency was inconclusive [inhibitor, single point]. In the case of `O=C(Nc1ccccc1)C1=C[C@H](c2ccc(C(F)(F)F)cc2)C[C@H](OCc2ccc(CO)cc2)O1`, the Potency was inconclusive [inhibitor, full curve, poor fit]. In the case of `Cc1ccc(S(=O)(=O)c2cnc3cc(C)nn3c2N)cc1`, the Potency was “inactive”. With `CCC(C)N(C(=O)CSc1nc2ccc(OC)cc2[nH]1)C1CCS(=O)(=O)C1` (centres undefined) the Potency was “inactive”. For `Cc1ccc(-c2nn(-c3ccccc3)cc2C(=O)N2CCOCC2)cc1`, the Potency was “inactive”. With `CCn1c(SCC(=O)c2cc(C)n(C)c2C)nnc1-c1ccccc1` the Potency was “inactive”. For `COc1ccc(CNC(=O)N2CCN(c3cccc(Cl)c3)CC2)cc1OC`, the Potency was inconclusive [inhibitor, single point]. With `O=C(OCCN1CCCC1)C1(c2ccccc2)CCCC1` the Potency was inconclusive [inhibitor, single point]. With `CCOC(=O)[C@H]1[C@H]2COc3ccc(Cl)cc3[C@@H]2N2C(=O)c3cc(C)ccc3NC(=O)[C@@]12C` the Potency was inconclusive [inhibitor, partial curve]. For `CCC/C(C#Cc1ccsc1)=C1/c2ccccc2C(=O)N1c1ccccc1`, the Potency was inconclusive [inhibitor, single point]. With `COc1cccc(NC(=O)c2ccc(S(=O)(=O)N3CCCC3)cc2)c1` the Potency was “inactive”. In the case of `Cc1ccsc1/C=N\NC(=O)c1n[nH]c2c1CCC2`, the Potency was inconclusive [inhibitor, full curve, poor fit]. For `COc1cccc(NC(=O)Nc2nnc(Cc3ccccc3F)s2)c1`, the Potency was inconclusive [inhibitor, partial curve]. With `COC(=O)[C@]1(Cc2ccccc2)N[C@H](c2ccc(-c3cccc(Cl)c3)cc2)[C@@H]2C(=O)N(C)C(=O)[C@@H]21` the Potency was inconclusive [inhibitor, full curve]. For `CCOc1ccccc1N(C(=O)c1snc(C(N)=O)c1N)C(C(=O)NC1CCCC1)c1cccs1` (centres undefined), the Potency was inconclusive [inhibitor, single point]. For `COc1cc2c(cc1O)C(SC)=NC(C)(C)C2`, the Potency was inconclusive [inhibitor, partial curve]. In the case of `O=C1CCN(Cc2cccnc2)CCN1[C@H](CO)Cc1ccccc1`, the Potency was “inactive”. With `CCCN(C(=O)CSc1nc2cc(S(=O)(=O)N(CC)CC)ccc2o1)C1CCS(=O)(=O)C1` (centres undefined) the Potency was inconclusive [inhibitor, single point]. For `Cc1cc2ccccn2c1C(=O)c1nc(N2CCOCC2)ncc1Cl`, the Potency was inconclusive [inhibitor, partial curve]. With `CCOc1nc2cnccc2n(CC(=O)Nc2c(C)cccc2CC)c1=O` the Potency was inconclusive [inhibitor, single point]. With `CN(C)c1ccc(N=C/C=C2\N(C)c3ccccc3C2(C)C)cc1` the Potency was inconclusive [inhibitor, single point]. In the case of `O=C(CSc1nnc(-c2ccc(F)cc2)c2ccccc12)NCC1CCCO1` (centres undefined), the Potency was “inactive”. With `O=C(Nc1nc(-c2ccccc2)cs1)c1ccc2c(=O)n3c(nc2c1)CCCCC3` the Potency was active: 2.51 µM. With `C[C@@H](c1ccccc1)N1C[C@H]2CCCN2c2cc(Br)ccc2S1(=O)=O` the Potency was active: 11.2 µM. In the case of `Fc1ccc(-c2cn(-c3ccccc3)c3[n+]2CCS3)cc1`, the Potency was inconclusive [inhibitor, single point].
